Source: PubChem BioAssay AID504845 (National Center for Advancing Translational Sciences (NCATS), 2011)
Hit rate of the full screen: of about 390,000 compounds, about 150 (0.038%) were called active. The inconclusive results got no clear call from the source; some entries with a clear call stand among them for comparison. The call rests on the fitted dose curve; in most records, active means well fitted inhibition curve with a large enough effect; inconclusive means small, poorly fitted or top-dose-only effect; inactive means no such curve, though single readings can be large or run the other way. Where the call is inconclusive, the potency comes from a doubtful curve fit.

What follows are compounds tested against Regulator of G-protein signaling 4 (Homo sapiens) (UniProt P49798) (assay: Inhibitors of Regulator of G Protein Signaling (RGS) 4: qHTS). Settings: Transcreener GDP fluorescence polarization, RGS4-accelerated GTP hydrolysis; series mostly up to 114 µM.
Procedure, shortened: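 MLSMR compounds (23 nl, pin-transferred) preincubated 10 min at room temperature with a 500nM (2x) first reagent, then RGS4 at 900nM (2x) plus Transcreener GDP mix added; fluorescence polarization (620/688 nm) read before and after 90 min at 30 °C.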
Further: nearly all actives have a fitted effect of over 75% in size.
Potency means the concentration at half of the fitted maximal effect; tags describe the fitted curve by direction and shape.

UniProt P49798, sequence (P49798 whole entry, looked up): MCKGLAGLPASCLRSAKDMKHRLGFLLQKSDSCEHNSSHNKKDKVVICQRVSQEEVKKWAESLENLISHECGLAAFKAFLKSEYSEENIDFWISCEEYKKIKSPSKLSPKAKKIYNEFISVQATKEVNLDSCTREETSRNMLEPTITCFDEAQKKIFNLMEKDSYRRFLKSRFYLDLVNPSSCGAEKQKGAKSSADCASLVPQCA

**Q.** How did the Potency turn out when COc1cccc(N2CC(NC(=O)c3ccco3)CC2=O)c1 (configuration not stated) was run?
**A.** inactive

**Q.** How did the Potency turn out when COC(=O)c1sc(=S)n(-c2cc(F)ccc2F)c1N was run?
**A.** inconclusive: 35.5 µM [inhibitor, partial curve, poor fit]

**Q.** For Cc1cc(C)n(CC(O)Cn2c3ccc(Br)cc3c3cc(Br)ccc32)c(=O)n1 (configuration not stated), which Potency is on record?
**A.** inactive

**Q.** Which Potency does the source give for Cc1nn2c(-c3ccccc3)nnc2c2ccccc12 here?
**A.** inactive

**Q.** How did the Potency turn out when Cc1cc(C)cc(N(CC(=O)NCC2CCCO2)C(=O)CN2C(=O)COc3ccccc32)c1 (configuration not stated) was run?
**A.** inconclusive: 70.8 µM [inhibitor, partial curve, poor fit]

**Q.** For CC(=C\C(=O)O)/C(=C/c1ccccc1)C(=O)O, which Potency is on record?
**A.** inactive

**Q.** For CCOC(=O)c1cc(-c2ccccc2)sc1NC(=O)C(C)C, which Potency is on record?
**A.** inconclusive: 79.4 µM [inhibitor, partial curve, poor fit]

**Q.** Which Potency does the source give for CC(=O)c1cccc(OCC(O)CN2CCN(S(=O)(=O)c3c(F)cccc3F)CC2)c1 (configuration not stated) here?
**A.** inconclusive: 39.8 µM [inhibitor, partial curve, poor fit]

**Q.** COc1ccc(N2CCN(C(=O)C3CCN(S(=O)(=O)c4cccs4)CC3)CC2)cc1 was tested. Which Potency did it give?
**A.** inconclusive: 22.4 µM [inhibitor, full curve, poor fit]

**Q.** With COc1ccccc1NC(=O)C(=O)NCC(c1ccc2c(c1)OCO2)N1CCOCC1 (configuration not stated) as the compound, how does the Potency read?
**A.** inactive

**Q.** For CCOC(=O)N1CCC(N2CCN(S(=O)(=O)CC)CC2)CC1, which Potency is on record?
**A.** inactive

**Q.** Which Potency does the source give for CCSC1=NC2(CCCCC2)Nc2sc3c(c21)CCCC3 here?
**A.** inconclusive: 50.1 µM [inhibitor, partial curve, poor fit]

**Q.** For COc1ccc(C)cc1NC(=O)CSc1ccc(-c2ccco2)nn1, which Potency is on record?
**A.** inconclusive: 50.1 µM [inhibitor, partial curve, poor fit]

**Q.** Cc1ccc(CNC(=O)C2CCC(=O)N(CCc3ccccn3)C2)s1 (configuration not stated) was tested. Which Potency did it give?
**A.** inconclusive: 70.8 µM [inhibitor, single point]

**Q.** For COC(=O)c1cc(=O)c2ccc(OC)cc2o1, which Potency is on record?
**A.** inactive

**Q.** For CCOc1ccc(NC(=O)c2ccc(OCC3CCCO3)cc2)cc1S(=O)(=O)N(CC)CC (configuration not stated), which Potency is on record?
**A.** inactive

**Q.** With CCCOc1ccc(/C=N/NC(=O)CSCc2ccc([N+](=O)[O-])cc2)cc1OCC as the compound, how does the Potency read?
**A.** inactive

**Q.** For Oc1c(CN2CCCCC2)cc(Br)c2cccnc12, which Potency is on record?
**A.** inconclusive: 70.8 µM [inhibitor, partial curve, poor fit]

**Q.** How did the Potency turn out when COc1cc(C(=O)Oc2c(Sc3ccccc3)c(C)nn2-c2ccccc2)cc(OC)c1OC was run?
**A.** inconclusive: 89.1 µM [inhibitor, partial curve, poor fit]

**Q.** Which Potency does the source give for O=S(=O)(c1ccc(SCCOc2ccc(Br)cc2)nc1)N1CCCC1 here?
**A.** inconclusive: 79.4 µM [inhibitor, partial curve, poor fit]

**Q.** Cc1nn(-c2ccccc2)c(OC(=O)C(C)C)c1Sc1ccc(Cl)cc1 was tested. Which Potency did it give?
**A.** inconclusive: 79.4 µM [inhibitor, partial curve, poor fit]

**Q.** How did the Potency turn out when CCN1CCN(C(=S)c2ccc(Cl)c(Cl)c2)CC1 was run?
**A.** inconclusive: 56.2 µM [inhibitor, partial curve, poor fit]

**Q.** For CC(=O)c1ccc(OC(=O)COc2ccccc2Cl)cc1, which Potency is on record?
**A.** inactive

**Q.** With C=CCn1c(Cc2cccs2)nnc1SCC(=O)c1cccc(Br)c1 as the compound, how does the Potency read?
**A.** inconclusive: 50.1 µM [inhibitor, partial curve, poor fit]

**Q.** For CCc1ccccc1NC(=O)CNC(=O)c1cn(Cc2ccccc2)nc1-c1cccnc1, which Potency is on record?
**A.** inconclusive: 89.1 µM [inhibitor, single point]

**Q.** Which Potency does the source give for CCc1ccc(CN(C)CCc2ccccn2)cc1 here?
**A.** inactive

**Q.** Which Potency does the source give for O=C(CCl)Nc1cccc(-c2cnc3ccccc3n2)c1 here?
**A.** inactive

**Q.** Which Potency does the source give for Cc1cc2cc(CNC(=O)c3cccs3)ccc2n1C here?
**A.** inconclusive: 56.2 µM [inhibitor, partial curve, poor fit]

**Q.** Which Potency does the source give for O=[N+]([O-])c1cc(/C=N/n2c(-c3cccnc3)n[nH]c2=S)ccc1Cl here?
**A.** inconclusive: 56.2 µM [inhibitor, partial curve, poor fit]

**Q.** How did the Potency turn out when Cc1cc(S(=O)(=O)N2CCCC(N(C)CCc3ccccn3)C2)c(C)cc1Cl (configuration not stated) was run?
**A.** inconclusive: 50.1 µM [inhibitor, partial curve, poor fit]

**Q.** How did the Potency turn out when Cc1cc(C)cc(C(=O)N2CCN(Cc3ccc4c(c3)OCO4)CC2)c1 was run?
**A.** inactive

**Q.** With Cc1cccc(C2=NN(c3ccccc3)[C@@H](C(=O)N3CCOC3=O)[C@@H]2c2ccc(Cl)cc2)c1 as the compound, how does the Potency read?
**A.** inactive

**Q.** How did the Potency turn out when CCCNC(=O)c1cccc(Cn2nc(C)c(Br)c2C)c1 was run?
**A.** inconclusive: 89.1 µM [inhibitor, single point]

**Q.** For CC(C)(C)C1CCC(=NNc2nc3ccccc3[nH]2)CC1 (configuration not stated), which Potency is on record?
**A.** inactive

**Q.** Cc1ccc(Nc2nc(-c3sc(NC(=O)c4ccco4)nc3C)cs2)cc1 was tested. Which Potency did it give?
**A.** inconclusive: 20 µM [inhibitor, full curve, poor fit]

**Q.** With Cc1ccc(C(=O)NC(C)CCc2ccccc2)cc1S(=O)(=O)N1CCOCC1 (configuration not stated) as the compound, how does the Potency read?
**A.** inactive

**Q.** Cc1ccc(S(=O)(=O)Nc2ccc3nc(N)sc3c2)cc1 was tested. Which Potency did it give?
**A.** inactive

**Q.** CCCCCCC(=O)N(O)C1CC(=O)N(c2ccc(F)cc2)C1=O (configuration not stated) was tested. Which Potency did it give?
**A.** inconclusive: 28.2 µM [inhibitor, full curve, poor fit]

**Q.** Which Potency does the source give for O=C(NC1CCCCCCC1)c1cc(F)c(F)cc1Cl here?
**A.** inactive

**Q.** O=C(N/C=C\c1ccccc1)NCc1ccc(Cl)cc1 was tested. Which Potency did it give?
**A.** inconclusive: 89.1 µM [inhibitor, single point]

**Q.** Which Potency does the source give for COc1ccc(OC)c(/C=N/c2oc(-c3ccco3)c(-c3ccco3)c2C#N)c1 here?
**A.** inconclusive: 70.8 µM [inhibitor, partial curve, poor fit]

**Q.** With CCOC(=O)C1=C(CSc2nc(-c3ccncc3)ccc2C#N)OC(N)=C(C#N)C1c1ccc(OC)cc1 (configuration not stated) as the compound, how does the Potency read?
**A.** inconclusive: 89.1 µM [inhibitor, single point]

**Q.** With COc1ccc(N)c2c1C(=O)c1ccccc1C2=O as the compound, how does the Potency read?
**A.** inactive

**Q.** Which Potency does the source give for CCOc1nc(C)ccc1-c1noc(C)n1 here?
**A.** inactive

**Q.** For CCOc1cc(/C=C\[N+](=O)[O-])ccc1OCC(=O)N1CCOCC1, which Potency is on record?
**A.** inconclusive: 50.1 µM [inhibitor, partial curve, poor fit]

**Q.** For CCN(CC)S(=O)(=O)c1ccc2c(c1)nc(CCC(=O)Nc1ccc3c(c1)OCO3)n2C, which Potency is on record?
**A.** inconclusive: 100 µM [inhibitor, partial curve, poor fit]

**Q.** CC(/C=N/NC(=O)c1nnn(-c2nonc2N)c1CN(C)C)=C\c1ccco1 was tested. Which Potency did it give?
**A.** inconclusive: 50.1 µM [inhibitor, partial curve, poor fit]

**Q.** Which Potency does the source give for CCN(CC)S(=O)(=O)c1ccc2oc(C(=O)NCC3COc4ccccc4O3)c(C)c2c1 (configuration not stated) here?
**A.** inconclusive: 100 µM [inhibitor, single point]

**Q.** COc1cccc(/C=N/NC(=O)c2cc(-c3cccn3C)n[nH]2)c1O was tested. Which Potency did it give?
**A.** inconclusive: 70.8 µM [inhibitor, single point]

**Q.** Which Potency does the source give for CNC(=O)c1ccccc1NC(=O)c1cccc(S(=O)(=O)N2CCC(C)CC2)c1 here?
**A.** inactive

**Q.** Which Potency does the source give for O=c1ccc2[n+]([O-])c3ccc(O)cc3oc-2c1 here?
**A.** inconclusive: 44.7 µM [inhibitor, partial curve, poor fit]

**Q.** With CC1(CC(=O)N/N=C/c2cc([N+](=O)[O-])c(O)cc2O)OCCO1 as the compound, how does the Potency read?
**A.** inconclusive: 79.4 µM [inhibitor, partial curve, poor fit]

**Q.** For Cc1cc(C)nc(NS(=O)(=O)c2ccc(N/C=C\C(=O)c3cccs3)cc2)n1, which Potency is on record?
**A.** inconclusive: 56.2 µM [inhibitor, partial curve, poor fit]

**Q.** For Cc1[nH]n(-c2cccc3ccccc23)c(=O)c1C=Nc1ccc2[nH]c(=O)[nH]c2c1, which Potency is on record?
**A.** inactive

**Q.** For O=C(Nc1cccc(S(=O)(=O)NC2=NCCCCC2)c1)c1cc(-c2ccco2)nc2ccccc12, which Potency is on record?
**A.** inconclusive: 50.1 µM [inhibitor, partial curve, poor fit]

**Q.** CCC(=O)N(C)CCc1cc2c(c(OC)c1/C=N/NC(=O)c1ccc(Br)cc1)OCO2 was tested. Which Potency did it give?
**A.** inconclusive: 79.4 µM [inhibitor, partial curve, poor fit]

**Q.** CCOc1ccc(-n2nnc3c(=O)n(CC(=O)NCc4ccco4)cnc32)cc1 was tested. Which Potency did it give?
**A.** inconclusive: 44.7 µM [inhibitor, partial curve, poor fit]

**Q.** Which Potency does the source give for CCCC(=O)Nc1nc(C)c(-c2csc(Nc3ccc(Cl)cc3)n2)s1 here?
**A.** inconclusive: 28.2 µM [inhibitor, full curve, poor fit]

**Q.** How did the Potency turn out when Cc1sc2nc3c(C(=O)N4CCCC4)cc(C(=O)c4ccccc4O)cn3c(=O)c2c1C was run?
**A.** inconclusive: 17.8 µM [inhibitor, full curve, poor fit]

**Q.** For Cc1ccc(/C=C/C(=O)Nc2cc(S(N)(=O)=O)ccc2O)cc1, which Potency is on record?
**A.** inconclusive: 28.2 µM [inhibitor, full curve, poor fit]

**Q.** Which Potency does the source give for COC(=O)c1ccc(Oc2c(Cl)cccc2[N+](=O)[O-])cc1 here?
**A.** inconclusive: 50.1 µM [inhibitor, partial curve, poor fit]

**Q.** With C=CCn1c(SCC(=O)Nc2nnc(C)s2)nnc1-c1cccnc1 as the compound, how does the Potency read?
**A.** inconclusive: 89.1 µM [inhibitor, single point]

**Q.** How did the Potency turn out when CC(C)(C)C(=O)COC(=O)c1c2c(nc3ccccc13)CCC2 was run?
**A.** inactive

**Q.** How did the Potency turn out when COc1ccc(-n2c(O)c(/C=N/NS(=O)(=O)c3ccc(C)c([N+](=O)[O-])c3)c3ccccc3c2=O)cc1OC was run?
**A.** inconclusive: 50.1 µM [inhibitor, partial curve, poor fit]

**Q.** Which Potency does the source give for N=c1n(CCN2CCCCC2)c2ccccc2n1CC(=O)c1ccc(Cl)c(Cl)c1 here?
**A.** inactive

**Q.** CNC(=O)C1C(=S)NC(N)=C(C#N)C1c1ccccc1 (configuration not stated) was tested. Which Potency did it give?
**A.** inconclusive: 50.1 µM [inhibitor, partial curve, poor fit]

**Q.** Which Potency does the source give for COc1ccc(C2(CNC(=O)/C=C\c3ccco3)CCCC2)cc1OC here?
**A.** inconclusive: 79.4 µM [inhibitor, partial curve, poor fit]
